# Assay results taken from PubChem BioAssay AID488969 (Vanderbilt High Throughput Screening Facility, 2010).
# The full ranking holds about 110,000 compounds; the median of “z-score” is about -0.1, and the highest 2% start at about 2. The list shows a part of the results.
# Target: Metabotropic glutamate receptor 8 (Rattus norvegicus) (UniProt P70579)
# Experiment: mGluR8 Gi/Go-coupled signaling modulation – cell-based, rat, thallium flux, HTS, primary screen (AID 488969)
# Details: HEK293 rat mGluR8, GIRK (G protein-gated inwardly rectifying potassium channel) thallium flux, FluoZin2; at 10 µM; stronger effect = higher value; submaximal glutamate (EC20) added with thallium
# Chain of UniProt P70579 (P70579 whole entry, looked up): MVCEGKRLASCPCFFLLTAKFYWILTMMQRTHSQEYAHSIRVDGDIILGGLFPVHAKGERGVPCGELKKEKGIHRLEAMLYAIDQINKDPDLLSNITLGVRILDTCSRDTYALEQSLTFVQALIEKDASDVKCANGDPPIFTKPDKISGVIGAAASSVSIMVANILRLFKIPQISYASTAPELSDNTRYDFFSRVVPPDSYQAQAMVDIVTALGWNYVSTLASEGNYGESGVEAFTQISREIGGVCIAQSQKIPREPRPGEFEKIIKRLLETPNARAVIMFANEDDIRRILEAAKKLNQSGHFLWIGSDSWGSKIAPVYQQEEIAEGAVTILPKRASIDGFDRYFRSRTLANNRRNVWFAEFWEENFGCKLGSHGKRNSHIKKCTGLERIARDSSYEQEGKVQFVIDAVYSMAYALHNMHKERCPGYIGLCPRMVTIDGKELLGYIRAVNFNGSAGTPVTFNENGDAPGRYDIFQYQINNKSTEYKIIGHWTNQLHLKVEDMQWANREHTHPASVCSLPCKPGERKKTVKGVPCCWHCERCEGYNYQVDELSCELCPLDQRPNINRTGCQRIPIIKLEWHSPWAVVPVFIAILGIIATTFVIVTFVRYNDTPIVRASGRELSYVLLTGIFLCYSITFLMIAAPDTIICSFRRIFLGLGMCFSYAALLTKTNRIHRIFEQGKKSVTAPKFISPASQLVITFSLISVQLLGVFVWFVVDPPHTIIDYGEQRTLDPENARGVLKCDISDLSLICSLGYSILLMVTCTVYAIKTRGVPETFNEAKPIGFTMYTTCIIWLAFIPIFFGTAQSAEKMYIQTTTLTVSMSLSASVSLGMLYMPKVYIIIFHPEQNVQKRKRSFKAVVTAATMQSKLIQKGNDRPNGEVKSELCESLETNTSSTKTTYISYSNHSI
row,Compound,z-score
1,CCOC(=O)c1ccccc1NC(=O)CSc1nnc(COc2ccccc2C)n1C,-1.24
2,Cc1ccc(/C=C(\NC(=O)c2ccccc2)C(=O)NC(Cc2ccccc2)C(=O)O)cc1 (stereo unspecified),-0.0603
3,O=C(N/N=C/c1ccncc1)c1cc2ccccc2o1,-0.224
4,COc1cc(C(=O)N[C@H](C(=O)NC2CCCCCC2)C(C)C)cc(OC)c1OC,-0.25
5,Cn1c(N)c(C(=O)COC(=O)c2ccco2)c(=O)n(C)c1=O,-0.0655
6,C=C(C)C1CC=C(CN2CC(C)OC(C)C2)CC1 (stereo unspecified),-0.037
7,COc1ccc(C(C)=O)cc1CSc1nc2ccccc2c(=O)n1-c1cccc(C)c1,-0.349
8,CC1=C(CC(=O)c2ccc(Cl)cc2)C(=O)c2ccccc2C1=O,-0.578
9,Cc1nn(C)cc1C(C(=O)NC1CCCCC1)N(C(=O)Cc1cccs1)c1ccc(C(C)C)cc1 (stereo unspecified),-0.432
10,Cc1ccc(C(=O)Nc2cc(Cl)ccc2OC(=O)c2ccc(C)cc2)cc1,-0.214
11,Cc1ccc(C2C(C#N)=C(N)Oc3c2sc2ccccc32)o1 (stereo unspecified),-0.552
12,CCn1c(=O)cc(SCC(=O)Nc2ccc(Cl)cc2)c2ccccc21,-0.0948
13,CN1C(=O)C2ON(c3ccccc3)C(c3cccs3)C2C1=O (stereo unspecified),-0.0304
14,O=C(Nc1cccc(Cl)c1)Nc1ccccc1C(=O)NCc1ccco1,-0.386
15,N#Cc1cc(-c2ccccc2)oc1NC(=O)c1ccco1,-0.229
16,CC(/C=C/C(=O)c1ccc(C)cc1)=C\c1ccccc1,0.454
17,CN1/C(=C\C=N\NC(=O)c2ccc(O)cc2)C(C)(C)c2ccccc21,-0.895
18,O=C(c1ccccc1)c1cnc(Nc2ccc(Cl)c(Cl)c2)s1,-0.0695
19,CCn1c(SCc2ccc(C(=O)Nc3cc(C)cc(C)c3)cc2)nnc1-c1ccncc1,-0.36
20,O=C(Nc1nc2ccc(F)cc2s1)C1CCN(S(=O)(=O)c2cc([N+](=O)[O-])ccc2Cl)CC1,-0.00866
21,Cc1ccc2[nH]cc(C(=O)NCc3cccs3)c(=O)c2c1,0.0178
22,O=C(Oc1ccc(-c2cn3c(n2)SCC3)cc1)c1ccccc1,1.09
23,CCCCNC(=O)c1c(C)cc(=O)oc1C,0.103
24,CN(C)S(=O)(=O)c1cccc(C(=O)N2CCN(Cc3ccccc3)CC2)c1,1.37

row,Compound,z-score
1,O=c1c2ccccc2nc2ccc(N3CCOCC3)nn12,-0.0479
2,Cc1cc2c(ncn2Cc2ccccc2)c([N+](=O)[O-])c1C,-0.611
3,COc1cccc(C(C#N)N2N=C(C)CC2(C)C)c1O (stereo unspecified),-0.121
4,O=C(O)C1C2C=CC(C2)C1C(=O)Nc1ccc(C(=O)N2CCCCC2)c(Cl)c1 (stereo unspecified),0.0164
5,CCOc1ccc(C(=S)NC2CCCCC2)cc1OC,-0.0762
6,Cc1cc(C)c[n+](-c2nc([O-])sc2C=O)c1,0.00581
7,CCn1cc(C(=O)NCC2COc3ccccc3O2)c2cc(OC)c(OC)cc2c1=O (stereo unspecified),-0.548
8,CC(C)(C)C(=O)NC(=S)N1CCCC1,-0.128
9,Cc1cc(-c2n[nH]c(=S)n2-c2ccccc2)nn1C,-0.256
10,COc1cc(/C=C2\C(=O)ON=C2c2ccccc2)cc(OC)c1OC,-0.0771
11,COc1ccc2nc(SCc3cccnc3)c(C#N)cc2c1,-0.0679
12,CC(NC(=O)Nc1ccccn1)N1C(=O)C2C3C=CC(C3)C2C1=O (stereo unspecified),1.82
13,CCC(=O)Nc1c(OC(=O)CC)ccc2c(C)cc(=O)oc12,0.0482
14,CC1=C/C(=C\c2ccc(Br)o2)C(=O)O1,-0.119
15,O=C(CN1CCN(c2ncccn2)CC1)NCc1ccccc1,0.306
16,Cc1ccc(CNC(=O)[C@@H]2CCC(=O)N2Cc2ccco2)cc1,-0.0544
17,COc1ccc(Nc2nc(C(F)(F)F)nc(C)c2C#N)cc1,0.692
18,CC(Sc1ccc2c(c1)OCCO2)C(=O)Nc1ncc(Cl)cc1Cl (stereo unspecified),-0.106
19,Cc1ccc(CC2CC(=O)N(Cc3ccco3)C2=O)cc1 (stereo unspecified),-0.132
20,Cc1ccc(O)c(-c2cc(C(=O)Nc3ccc(S(=O)(=O)Nc4nc(C)cc(C)n4)cc3)[nH]n2)c1,-0.0927
21,Cc1cc([N+](=O)[O-])cc(C)c1OCC(=O)N/N=C/c1ccc(OC(=O)c2ccccc2)cc1,-0.0495
22,COC(=O)c1nc2n(n1)C(c1cccc(Cl)c1)C1=C(CC(C)(C)CC1=O)N2 (stereo unspecified),-0.452
23,O=C(CCC(=O)OCc1ccc(Cl)cc1)Nc1cccc([N+](=O)[O-])c1,0.0499
24,O=C(O)c1ccc(COc2c(F)c(F)cc(F)c2F)o1,-0.477

row,Compound,z-score
1,Cc1c(NC(=O)c2nn3c(c2Br)NC(c2ccccc2)CC3C(F)(F)F)c(=O)n(-c2ccccc2)n1C (stereo unspecified),-0.0432
2,CCOc1ccccc1NC(=O)CN1CCC(NC(=O)c2ccccc2)CC1,-0.698
3,Cc1ccc(NC(=O)COC(=O)C2COc3ccccc3O2)cc1S(=O)(=O)N1CCOCC1 (stereo unspecified),-0.314
4,Nc1ccccc1Nc1cc(-c2cccc(Cl)c2)nn1-c1ccccc1,0.148
5,CCCn1c(CCC(=O)O)ccc1-c1ccc(F)cc1,-0.0413
6,COc1ccc(-n2nnnc2SCC(=O)Nc2nnn(C)n2)cc1,-0.105
7,CCC(=O)N(CCc1ccccc1)Cc1cc2cc3c(cc2[nH]c1=O)OCO3,0.0713
8,COc1ccc2oc(=O)c(C(=O)O)cc2c1,0.0264
9,CC1(C)Cc2c(sc3c2C(=O)N(c2ccccc2)C2=NCCCN23)CO1,0.254
10,Cc1ccc(NCC(=O)N/N=C/c2ccc(-c3cccc(C(F)(F)F)c3)o2)cc1,-0.0535
11,CCCc1nnc(NC(=O)CCC(=O)NCCc2ccc(OC)c(OC)c2)s1,-0.147
12,Cc1cccc(-c2nnc(-c3ccccc3)o2)c1,0.474
13,O=C(O)c1cc(-c2ccccc2)n(-c2ccccc2C(=O)O)n1,0.306
14,CCOCC(=O)Nc1nnc(COC)s1,-0.129
15,CCOc1ccc(-n2c(SC(C)C(=O)OC)nc3c(c2=O)SCC3)cc1 (stereo unspecified),-1.05
16,O=C(NC1CCCCCC1)c1cccnc1Sc1ccccc1,-0.0826
17,CCOc1ccc(S(=O)(=O)N2CCC(C(N)=O)CC2)c2ccccc12,1.35
18,COc1cccc(NC(=O)CSc2nnc(-c3cccs3)n2C)c1,-0.173
19,Cc1cc(C)n(-c2ccc(C(=O)OCC(=O)NCc3ccc(F)cc3)cc2)n1,0.122
20,COc1ccc(Cn2nnnc2C(c2ccncc2)N2CCOCC2)cc1 (stereo unspecified),0.39
21,CN1CCN(C(=O)Cn2c(C(F)(F)F)nc3ccccc32)CC1,0.0745
22,Cc1cc(N2CCN(c3ccccn3)CC2)n2c(nc3ccccc32)c1C#N,-0.235
23,Cc1sc(NC(=O)Cn2c(=O)oc3ccccc32)nc1-c1ccc(Cl)cc1,-0.249
